Data on 81 compounds can be found in PubChem BioAssay (NCI).

Values joined by “and” are separate entries in the source; they are usually repeats but may differ in a detail not shown here. Identical values can stand only once.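 In this assay, cells in 96-well plates receive the compound at five concentrations for 48 hours. Endpoints are linearly interpolated between the surrounding concentrations. GI50 = concentration required for 50% inhibition of growth. TGI: total growth inhibition.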 Bounds are passed on as bounds.

For the experiment, the system named is NCI-H322M lung. The experiment in a line: inhibition of tumour cell growth, NCI panel, 48 h.
Consider `NC(=O)NC(=O)c1cccc(NC(=O)CCl)c1`, for which the TGI amounted to 22.6 µM.

Regarding `O=C1NC(N2CCCCC2)=N/C1=C\c1ccco1`, the TGI is greater than 100 µM. Still for that read-out and setting: with `CC1OC(CC2C=CCc3c(O)c4c(c(O)c32)C(=O)c2ccccc2C4=O)CC(NC(=O)C(F)(F)F)C1O` (centres undefined) the figure was 24.5 µM. On the same count and under the same terms, with `COc1ccc2[nH]c3c(O)c(-c4c(C)cc5c([nH]c6ccc(OC)cc65)c4O)c(C)cc3c2c1` the figure was 8.54 µM; with `CNC(=O)NCCN1N=C(C)/C(=C\c2ccccc2)CC1=O`, greater than 100 µM; with `C/C(=N/N)c1sc(-c2nc(C)c(/C(C)=N\N)s2)nc1C`, greater than 100 µM.

For the compound `C(=C\c1ccc(OCC2CO2)cc1)/C1=NCOC1` (centres undefined), the GI50 is 19.8 µM and the TGI was 38.8 µM.

Compound `Cc1cnc2[nH]c(-c3ccc(Cl)cc3)cc(=O)c2c1` gave a TGI greater than 100 µM. On the same count and under the same terms, with `CCOC(OC1=C(C#N)CCCC1)C(CC)[Se]c1ccccc1[N+](=O)[O-]` (centres undefined) the figure was greater than 100 µM; with `CC1=NNC(=O)C1C1C=C(c2c[nH]c3ccccc23)OC1=O` (centres undefined), greater than 100 µM. For the compound `CC(=N\O)/C(C)=N/O.CC(=N\O)/C(C)=N/O.[Fe].[NH2-].c1c[nH]cn1`, the GI50 was greater than 100 µM and the TGI was greater than 100 µM. `COc1cc(C(=O)OC2CC34CCNC35CC(OC5(OC)C2O)c2cc3c(cc24)OCO3)ccc1O` (centres undefined): the TGI is greater than 100 µM. Turning to `COC(=O)/C(=N\N)C(C(=O)C(=O)Nc1nc(=S)[nH][nH]1)c1nc2ccc([N+](=O)[O-])cc2[nH]c1=O` (centres undefined), the TGI is greater than 100 µM.

As for `CC12CCC(=O)[C@@]1(C)CCCC2O` (some centres undefined), the TGI was greater than 100 µM. The same measure, in the same setting: with `O=C(O)CCSC(=O)Nc1ccccc1` the figure was greater than 100 µM; with `Cn1c(=O)[nH]c2c(c1=O)C(=O)CN2`, greater than 100 µM. On the same count and under the same terms, with `C1=Cc2cccc3occ(c23)C=C1` the figure was greater than 100 µM.

The compound `COC1(OC)C2C=CC1C([C@](C)(N)CO)C2` (some centres undefined) came in with a TGI greater than 100 µM.

Take `C=CCN1C(=O)[C@]2(SC1=S)[C@H](c1cccc(Cl)c1)CN(C)[C@]21C(=O)NC2C=CC(Cl)=C[C@H]21` (some centres undefined): the GI50 is 10.4 µM and the TGI is 27 µM.

`COc1ccc(N[C@@H]2c3cc4c(cc3C(c3cc(OC)c(O)c(OC)c3)[C@H]3C(=O)OCC32)OCO4)cc1OC` (some centres undefined) showed a TGI greater than 100 µM. On the same count and under the same terms, in the case of `Oc1ccc(/C=N/c2nccs2)c(O)c1` it was greater than 100 µM.

For the compound `CC(=O)c1ccc(Oc2c3ccccc3nc3occc23)cc1`, the GI50 is 0.0186 µM and the TGI stood at 74 µM. In the same order, the values of `CCCCC[C@H]1C/C=C2/C(=O)C(Cl)=C[C@@H]2C/C=C\CCCC(=O)O1` are 0.768 µM and 2.72 µM. Take `C[Si](C)(C)/C=C/CN1C(=O)CCC1=O`: the TGI is greater than 100 µM. In the case of `CN(C)C/C=C/C(=O)Nc1cc2c(Nc3cccc(Cl)c3F)ncnc2cc1OCCOC(F)F`, the GI50 was less than 0.01 µM and the TGI worked out at 4.75 µM. Regarding `FC(F)(F)c1nc(Br)[nH]c1C(F)(F)F`, the TGI is greater than 100 µM. On the same count and under the same terms, in the case of `COC1C(=O)N(SC)C1c1ccccc1Cl` (centres undefined) it was greater than 100 µM. As to `Cc1cn2c(/C=C3\C(=O)N(C)c4ccc(Cl)cc43)c(C)nc2s1`, the GI50 is greater than 100 µM and the TGI is greater than 100 µM. In turn, `C/C(=N\NC(=S)N1CCN(c2ccccn2)CC1)c1cccc2cccnc12` displayed a TGI greater than 56.2 µM. With `CC(=O)[CH-]C(=O)c1ccccc1.CC(=O)[CH-]C(=O)c1ccccc1.CC(=O)[CH-]C(=O)c1ccccc1.[Br-].[Zr+4]`, the GI50 was greater than 100 µM and the TGI was greater than 100 µM. Consider `COC(=O)[C@H](C)N(C)C(=O)[C@H](C)N1[C@@H](c2ccccc2)COC1(C)C`, for which the TGI was greater than 100 µM. Same read-out and setting: in the case of `O=C(O)c1cc(Cl)cc(Cc2cc(Cl)cc(C(=O)O)c2O)c1O` it was greater than 100 µM. Still for that read-out and setting: with `C=CCN1C(=O)CS/C1=N\NC(=O)CSc1nc2ccccc2c(=O)n1CC` the figure was greater than 100 µM.

`CCCCNCCCCCNc1cc(OC)cc2cccnc12`: the GI50 is 26.9 µM and the TGI turned out to be 78.2 µM. For the compound `Oc1cc(O)c2c(c1)OC(c1ccc(O)c(O)c1)C(O)C2c1c(O)cc(O)c2c1OC(c1ccc(O)c(O)c1)C(O)C2` (centres undefined), the TGI was greater than 100 µM. The same measure, in the same setting: in the case of `O=S(=O)(CF)OCCCCOS(=O)(=O)CF` it was greater than 100 µM. Still for that read-out and setting: in the case of `COC1OC(Cn2cc([N+](=O)[O-])nc2C)C(O)C(O)C1O` (centres undefined) it was greater than 100 µM. As for `CC(C)(C)OC(=O)N1Cc2cc3ccccc3nc2C1CO` (centres undefined), the GI50 was greater than 100 µM and the TGI was greater than 100 µM. On to `COc1ccc(-c2nnc(Nc3nc(O)c(C4=c5cc(Br)ccc5=NC4=O)s3)o2)cc1`, for which the GI50 was 7.06 µM and the TGI was 38.6 µM. For `O=C1c2ccccc2C(=O)c2sc(Nc3ccc([N+](=O)[O-])cc3)nc21`, the TGI was found to be 26.7 µM.

Consider `COc1cccc(-c2nn(-c3ccccc3)cc2-c2ccnc(NCCCNS(=O)(=O)c3ccc(C(F)(F)F)cc3)c2)c1`, for which the GI50 is greater than 100 µM and the TGI was greater than 100 µM.

On to `CCC(=C(c1ccc(OCCN2CCCC2)cc1)c1ccc(OCCN2CCCC2)cc1)c1ccc(Cl)cc1`, for which the GI50 is 0.603 µM and the TGI was found to be 1.18 µM.

`CC(C)CC1NC(=O)CCC(NC(=O)C(Cc2ccc(O)cc2)NC(=O)OCc2ccccc2)C(=O)NC(Cc2ccccc2)C(=O)NC(Cc2ccccc2)NC1=O` (centres undefined) returned a TGI greater than 100 µM. Same read-out and setting: with `c1ccc(COC[C@H]2C3OCC([C@H](OCc4ccccc4)[C@H]3OCc3ccccc3)N2Cc2ccccc2)cc1` (some centres undefined) the figure was greater than 100 µM; with `Nn1c(CCCCCCCCc2n[nH]c(=S)n2N)n[nH]c1=S`, greater than 100 µM.

Consider `CCC(C(=O)[C@@H](C)[C@@H](O)[C@H](C)[C@@H]1O[C@@H]([C@@H](CC)C(=O)ONC(=O)c2ccccc2)CC[C@@H]1C)[C@H]1O[C@]2(C=CC(=O)[C@]3(CC[C@@](C)([C@H]4CC[C@](O)(CC)[C@H](C)O4)O3)O2)[C@H](C)C[C@@H]1C` (some centres undefined), for which the GI50 is 1.85 µM and the TGI was greater than 22.7 µM. In the same order, the values of `CC1(C)CN(CCNc2nccc(-c3c(-c4cccc(O)c4)nc4sccn34)n2)S(=O)(=O)N1` are 13.8 µM and greater than 33.2 µM.

Take `CC[Si](CC)(CC)OC1[C@@H](O[Si](CC)(CC)CC)[C@@H](CNC(=O)NC)O[C@H]1n1cnc2c(NC(=O)Nc3ccccc3)ncnc21` (some centres undefined): the GI50 was 6.31 µM and the TGI was greater than 100 µM. Consider `CCN(CC)CCCNc1cc(OC)c(OC)c2cccnc12`, for which the GI50 is 10 µM and the TGI came to 37.6 µM.

As for `O=C(COc1cccc(/C=C2\Oc3ccc4ccccc4c3C2=O)c1)c1ccc([N+](=O)[O-])cc1`, the GI50 was greater than 100 µM and the TGI was greater than 100 µM. `NC(=O)c1ncn2c(=O)n(CCCl)nnc12` registered a TGI of 500 µM.

With `CCOC(=O)c1ccc(NC(=O)c2cccc(NC3=C(Cl)C(=O)N(Cc4ccccc4)C3=O)c2)cc1`, the GI50 is greater than 100 µM and the TGI was greater than 100 µM. Compound `COc1ccc(NC(=O)NNS(=O)(=O)c2ccc(C)cc2)cc1` returned a TGI greater than 100 µM. The same measure, in the same setting: in the case of `c1ccc(/C(=N\Nc2nc3ccccc3s2)c2ccccn2)cc1` it was 27.8 µM.

Turning to `O=C(c1ccc(Nc2nccc(NCCCCNc3ccnc4cc(Cl)ccc34)n2)cc1)N1CCCCC1`, the GI50 was 3.15 µM and the TGI was 13.2 µM. Regarding `COc1cc2c(cc1OC)[C@H]1C(COC(=O)Nc3ccccc3)CN1CC2` (some centres undefined), the TGI was greater than 100 µM.

Compound `CCOC(=O)c1ccn2c(c1)c(C#N)c1nc3ccccc3nc12` yielded a TGI greater than 100 µM.

With `CC(=O)O[C@H]1CC[C@]2(C)C3C(=O)C[C@]4(C)[C@@H](C(C)CCC(=O)O)CC[C@@]4(C)[C@@H]3CC[C@H]2C1(C)C` (some centres undefined), the GI50 was 26.3 µM and the TGI was greater than 50 µM. Taken in the same sequence, the figures for `Nc1nc(N)c(-c2ccc(Cl)c(Cl)c2)c(CP(Cl)(Cl)(Cl)Br)n1` were 8.48 µM and greater than 100 µM. Consider `COc1cc(OC)nc(-n2c(N)c(C(=O)O)c3ccc([N+](=O)[O-])cc3c2=O)n1`, for which the TGI is greater than 100 µM. In the case of `CCc1cccc(NC(=O)c2cc(/C=C/c3ccccc3)[nH]c(=S)n2)c1`, the TGI is greater than 100 µM. For the compound `O=C(Nc1ccc(Cl)cc1)N1CCN(c2ccc3nncn3n2)CC1`, the GI50 is greater than 100 µM and the TGI is greater than 100 µM. In the case of `CC(=O)/C=C/c1ccc(N(CCO)Cc2ccc(C(C)(C)C)cc2)cc1`, the GI50 was 103 µM and the TGI was found to be 221 µM. With `N[C@H]1CCN(c2c(F)cc3c(=O)c(C(=O)O)cn4c3c2Oc2c-4ccc3c2ccc2ccccc23)C1`, the TGI was greater than 55.3 µM. Same read-out and setting: in the case of `O=C(NC(CCCCN1C(=O)c2ccccc2C1=O)P(=O)(Oc1ccccc1)Oc1ccccc1)OCc1ccccc1` (centres undefined) it was greater than 100 µM. In the case of `NC(Cc1c[nH]c2cccc(F)c12)C(=O)O` (centres undefined), the GI50 was 94 µM and 523 µM; the TGI was 2160 µM.

Consider `COc1ccc2nc3ccccc3c(NCc3ccccc3)c2c1`, for which the GI50 is 1.93 µM and the TGI amounted to 5.47 µM. `Oc1ccc(/C=N/NC(=S)Nc2cccnc2)nc1`: the TGI was greater than 100 µM. With `CCOC(=O)CCSC1=CC(=O)c2nc3ccccc3c3ccnc1c23`, the GI50 is 64.2 µM and the TGI is greater than 100 µM. In turn, `Cc1cc(C)c(C(=O)C(C)C(c2ccccc2)c2ccc(Cl)cc2)c(C)c1` (centres undefined) had a TGI greater than 100 µM. The same measure, in the same setting: with `O=C(NCc1ccccc1)C1C(=O)C(=O)N(Cc2ccccc2)C1=O` (centres undefined) the figure was greater than 100 µM. On the same count and under the same terms, in the case of `O=C(O)c1[nH]c2c([N+](=O)[O-])cc([N+](=O)[O-])cc2c1C(=O)O` it was greater than 100 µM.

On to `COc1ccc(/C=C/c2nc(=S)[nH][nH]2)cc1OC`, for which the TGI was greater than 100 µM.

Take `CCc1ccccc1NC(=O)C(=O)C(C#N)c1c(Cl)cccc1Cl` (centres undefined): the TGI was greater than 100 µM. On the same count and under the same terms, with `COC(=O)C(=O)C(C(C)=O)C(=O)C(=O)Nc1ccc(C)cc1C` (centres undefined) the figure was greater than 100 µM; with `COc1ccc(NC(/C(C(=O)C(=O)/C=C(\O)c2ccccc2)=C(\O)c2ccccc2)c2ccc(OC)cc2)cc1` (centres undefined), greater than 100 µM. Same read-out and setting: with `COc1cc2cnc3c4cc(OC)c(OC(C)C)cc4ccc3c2cc1OC` the figure was greater than 100 µM; with `CC(C)(C)NC(=S)N/N=C/c1ccccn1`, greater than 100 µM; with `c1ccc2c(c1)[nH]c1c3ccccc3sc21`, greater than 100 µM. Take `COC(=O)[C@@H]1[C@H]2CC[C@]3(C)[C@@H](OC(C)=O)CC[C@H]3[C@@H]2CC[C@H]1C(C)=O`: the TGI is greater than 100 µM.

Regarding `CCOC(=O)c1cc(C(=O)c2cc(OC)c(OC)c(OC)c2)n2ccc(-c3cc[n+](CC(=O)c4cc(OC)c(OC)c(OC)c4)cc3)cc12`, the GI50 is 2.3 µM and the TGI stood at 7.45 µM.
